In a collection of fitness landscapes (doi:10.1016/j.celrep.2020.107928):
In all, about 81,000 sequences were measured (“one-hybrid fitness for binding NBS DNA”: median about -0.1, highest 2% from about 0.36 on). The list shows a part of the results.

B1: Caulobacter ParB omega fusion; a variant is named by its letters at X, in order, B8GW30 (parent)
chain: MESVVVGEPGMSEGRRGLGRGLSALLGEVDAAPAQAPGEQLGGSREAPIEILQRNPDQPRRTFREEDLEDLSNSIREKGVLQPILVRPSPDTAGEYQIVAGERAWRAAQRAGLKTVPIMVRELDDLAVLEIGIIENVQRADLNVLEEALSYKVLMEKFERTQENIAQTIGKSXSHVANXMRLLXLPDEVQSYLVSGELTAXHARAIAAAADPVALAKQIIEGGLSVRETEALARKAPNLSAGKSKGGRPPRVKDTDTQALESDLSSVLGLDVSIDHRGSTGTLTITYATLEQLDDLCNRLTRGI

Variants of: B1
Test: one-hybrid fitness for binding NBS DNA (the Noc-binding site; scaled: cognate 1, non-cognate 0); higher = stronger binding
Conditions: with NBS DNA site
Procedure, shortened: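 Fitness is the rescaled log change in variant-to-wild-type read ratio, measured by Illumina sequencing of plasmids before and after bacterial one-hybrid selection. The scale puts cognate at 1 and non-cognate at 0. Selection of Caulobacter ParB libraries, four specificity codons randomised, took place in E. coli USO with a HIS3 reporter, site 19 bp from the promoter, over 48 hours at 37°C on M9-minus-histidine with 0.1 mM IPTG and 5 mM 3-AT.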

For RVKG, which “one-hybrid fitness for binding NBS DNA” value is on record?
Its value is ≤ 0.2.

How did the “one-hybrid fitness for binding NBS DNA” value turn out when SGNW was run?
The value was ≤ 0.2.

YEIR was tested. Which “one-hybrid fitness for binding NBS DNA” value did it give?
The value was ≤ 0.2.

QGMV was tested. Which “one-hybrid fitness for binding NBS DNA” value did it give?
The value was ≤ 0.2.

How did the “one-hybrid fitness for binding NBS DNA” value turn out when SQLD was run?
Its value is ≤ 0.2.

How did the “one-hybrid fitness for binding NBS DNA” value turn out when YVVK was run?
Its value is ≤ 0.2.

Which “one-hybrid fitness for binding NBS DNA” value does the source give for QHRS here?
The value was 0.627.

Which “one-hybrid fitness for binding NBS DNA” value does the source give for MKVK here?
Its value is ≤ 0.2.

With FRPV as the variant, how does the “one-hybrid fitness for binding NBS DNA” value read?
The value was ≤ 0.2.

With NAPF as the variant, how does the “one-hybrid fitness for binding NBS DNA” value read?
Its value is ≤ 0.2.

For QNQR, which “one-hybrid fitness for binding NBS DNA” value is on record?
Its value is 0.221.

Which “one-hybrid fitness for binding NBS DNA” value does the source give for PGWT here?
Its value is ≤ 0.2.

With IGNC as the variant, how does the “one-hybrid fitness for binding NBS DNA” value read?
Its value is ≤ 0.2.

Which “one-hybrid fitness for binding NBS DNA” value does the source give for TGLT here?
Its value is ≤ 0.2.

How did the “one-hybrid fitness for binding NBS DNA” value turn out when ADYR was run?
The value was ≤ 0.2.

QVCD was tested. Which “one-hybrid fitness for binding NBS DNA” value did it give?
The value was ≤ 0.2.

How did the “one-hybrid fitness for binding NBS DNA” value turn out when EVVG was run?
Its value is ≤ 0.2.

Which “one-hybrid fitness for binding NBS DNA” value does the source give for NEFT here?
The value was ≤ 0.2.

How did the “one-hybrid fitness for binding NBS DNA” value turn out when TSWS was run?
Its value is ≤ 0.2.

For LDVY, which “one-hybrid fitness for binding NBS DNA” value is on record?
Its value is ≤ 0.2.

With DQIL as the variant, how does the “one-hybrid fitness for binding NBS DNA” value read?
Its value is ≤ 0.2.

Which “one-hybrid fitness for binding NBS DNA” value does the source give for LEGG here?
Its value is ≤ 0.2.

For IAGC, which “one-hybrid fitness for binding NBS DNA” value is on record?
Its value is ≤ 0.2.

VPSE was tested. Which “one-hybrid fitness for binding NBS DNA” value did it give?
The value was ≤ 0.2.

How did the “one-hybrid fitness for binding NBS DNA” value turn out when PILG was run?
Its value is ≤ 0.2.

For QHPN, which “one-hybrid fitness for binding NBS DNA” value is on record?
The value was ≤ 0.2.

With EDYS as the variant, how does the “one-hybrid fitness for binding NBS DNA” value read?
Its value is ≤ 0.2.

LYEP was tested. Which “one-hybrid fitness for binding NBS DNA” value did it give?
Its value is ≤ 0.2.

With DLAA as the variant, how does the “one-hybrid fitness for binding NBS DNA” value read?
The value was ≤ 0.2.

ADTV was tested. Which “one-hybrid fitness for binding NBS DNA” value did it give?
The value was ≤ 0.2.

How did the “one-hybrid fitness for binding NBS DNA” value turn out when TLRT was run?
Its value is ≤ 0.2.

Which “one-hybrid fitness for binding NBS DNA” value does the source give for RPMG here?
The value was ≤ 0.2.

How did the “one-hybrid fitness for binding NBS DNA” value turn out when PHHG was run?
Its value is ≤ 0.2.

WCCS was tested. Which “one-hybrid fitness for binding NBS DNA” value did it give?
Its value is ≤ 0.2.

Which “one-hybrid fitness for binding NBS DNA” value does the source give for CGEG here?
Its value is ≤ 0.2.

HISC was tested. Which “one-hybrid fitness for binding NBS DNA” value did it give?
Its value is ≤ 0.2.

For RLQN, which “one-hybrid fitness for binding NBS DNA” value is on record?
The value was ≤ 0.2.

With VMSL as the variant, how does the “one-hybrid fitness for binding NBS DNA” value read?
Its value is ≤ 0.2.

Which “one-hybrid fitness for binding NBS DNA” value does the source give for PDRY here?
Its value is ≤ 0.2.

How did the “one-hybrid fitness for binding NBS DNA” value turn out when ETIQ was run?
The value was ≤ 0.2.

How did the “one-hybrid fitness for binding NBS DNA” value turn out when KSGS was run?
Its value is ≤ 0.2.

Which “one-hybrid fitness for binding NBS DNA” value does the source give for RCFI here?
The value was ≤ 0.2.

With WYCS as the variant, how does the “one-hybrid fitness for binding NBS DNA” value read?
Its value is ≤ 0.2.

For ELTG, which “one-hybrid fitness for binding NBS DNA” value is on record?
Its value is ≤ 0.2.

YAQR was tested. Which “one-hybrid fitness for binding NBS DNA” value did it give?
The value was ≤ 0.2.

For PREL, which “one-hybrid fitness for binding NBS DNA” value is on record?
Its value is ≤ 0.2.

RYYL was tested. Which “one-hybrid fitness for binding NBS DNA” value did it give?
Its value is ≤ 0.2.

Which “one-hybrid fitness for binding NBS DNA” value does the source give for CYWC here?
The value was ≤ 0.2.

For TQWK, which “one-hybrid fitness for binding NBS DNA” value is on record?
Its value is ≤ 0.2.

For ADHV, which “one-hybrid fitness for binding NBS DNA” value is on record?
Its value is ≤ 0.2.

How did the “one-hybrid fitness for binding NBS DNA” value turn out when CATS was run?
The value was ≤ 0.2.

PQNE was tested. Which “one-hybrid fitness for binding NBS DNA” value did it give?
Its value is ≤ 0.2.

For HRLN, which “one-hybrid fitness for binding NBS DNA” value is on record?
Its value is ≤ 0.2.

With KNLG as the variant, how does the “one-hybrid fitness for binding NBS DNA” value read?
Its value is ≤ 0.2.

Which “one-hybrid fitness for binding NBS DNA” value does the source give for QGKQ here?
The value was ≤ 0.2.

TMPF was tested. Which “one-hybrid fitness for binding NBS DNA” value did it give?
The value was ≤ 0.2.

RKKK was tested. Which “one-hybrid fitness for binding NBS DNA” value did it give?
The value was 0.298.

NLRQ was tested. Which “one-hybrid fitness for binding NBS DNA” value did it give?
Its value is ≤ 0.2.

For QDVN, which “one-hybrid fitness for binding NBS DNA” value is on record?
The value was ≤ 0.2.

For SCTC, which “one-hybrid fitness for binding NBS DNA” value is on record?
The value was ≤ 0.2.

How did the “one-hybrid fitness for binding NBS DNA” value turn out when AANM was run?
Its value is ≤ 0.2.

How did the “one-hybrid fitness for binding NBS DNA” value turn out when QDTC was run?
Its value is ≤ 0.2.

With TELS as the variant, how does the “one-hybrid fitness for binding NBS DNA” value read?
The value was ≤ 0.2.

QHYP was tested. Which “one-hybrid fitness for binding NBS DNA” value did it give?
Its value is ≤ 0.2.

With DIGI as the variant, how does the “one-hybrid fitness for binding NBS DNA” value read?
The value was ≤ 0.2.

Which “one-hybrid fitness for binding NBS DNA” value does the source give for GAGC here?
Its value is ≤ 0.2.

Which “one-hybrid fitness for binding NBS DNA” value does the source give for ENSS here?
Its value is ≤ 0.2.

For WQGT, which “one-hybrid fitness for binding NBS DNA” value is on record?
The value was ≤ 0.2.

Which “one-hybrid fitness for binding NBS DNA” value does the source give for TRDY here?
Its value is ≤ 0.2.

With DSQC as the variant, how does the “one-hybrid fitness for binding NBS DNA” value read?
Its value is ≤ 0.2.

Which “one-hybrid fitness for binding NBS DNA” value does the source give for QMGY here?
Its value is 0.219.

For NKPS, which “one-hybrid fitness for binding NBS DNA” value is on record?
The value was ≤ 0.2.

With PIAT as the variant, how does the “one-hybrid fitness for binding NBS DNA” value read?
The value was ≤ 0.2.

With RHET as the variant, how does the “one-hybrid fitness for binding NBS DNA” value read?
The value was 0.216.

For GCNP, which “one-hybrid fitness for binding NBS DNA” value is on record?
Its value is ≤ 0.2.

For QMKR, which “one-hybrid fitness for binding NBS DNA” value is on record?
Its value is 1.03.
